This passage reports binding results from article PMC10201431, “SirA inhibits the essential DnaA:DnaD interaction to block helicase recruitment during Bacillus subtilis sporulation” (Nucleic Acids Research, 2022).

Assay in all cases: two-hybrid; bacterial two-hybrid, T25 and T18 fragments of B. pertussis adenylate cyclase, full-length proteins, E. coli HM1784 (BTH101 Δrnh::kan), spotted on nutrient agar with X-gal, 30°C, 24-48 h
The target in assay [1] is DnaA, full-length wild type, master initiator protein (bacterial two-hybrid fusion) (B. subtilis) (UniProt P05648).
For assay [2], the target named is T1, DnaB, full-length wild type, helicase co-loader protein (bacterial two-hybrid fusion) (B. subtilis) (UniProt P07908).
T1 sequence: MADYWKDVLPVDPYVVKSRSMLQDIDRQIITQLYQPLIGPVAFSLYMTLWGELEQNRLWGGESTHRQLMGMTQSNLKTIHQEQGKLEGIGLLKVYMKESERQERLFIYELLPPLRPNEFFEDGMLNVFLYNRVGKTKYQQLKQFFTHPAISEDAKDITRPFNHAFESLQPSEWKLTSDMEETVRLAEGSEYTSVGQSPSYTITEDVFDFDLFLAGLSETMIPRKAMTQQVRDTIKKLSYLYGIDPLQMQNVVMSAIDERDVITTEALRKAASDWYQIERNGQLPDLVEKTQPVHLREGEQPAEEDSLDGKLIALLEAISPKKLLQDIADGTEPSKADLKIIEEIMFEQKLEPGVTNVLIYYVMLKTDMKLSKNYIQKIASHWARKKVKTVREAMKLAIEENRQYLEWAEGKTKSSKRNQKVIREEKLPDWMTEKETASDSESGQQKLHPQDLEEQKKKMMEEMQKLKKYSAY

Assay [3] addresses T1, DnaB, full-length wild type, helicase co-loader protein (bacterial two-hybrid fusion) (B. subtilis). This is another data set of the same source.
For assay [4], the target named is T2, DnaB, full-length wild type, helicase co-loader protein (bacterial two-hybrid fusion) (B. subtilis), P07908.
T2 chain: T1 sequence
The following applies: remark: other sources report otherwise.

Changes are numbered by the printed parent chain. Names may count otherwise. Where two headings read alike, the source gives them in different places. Results are given in words; binding and its absence hold for the method and conditions named. Some entries that bind do so weakly or less than the wild type. For part of these data: Tags and fused reporters may be left off the sequences shown.

With “DnaA^F49A, full-length (bacterial two-hybrid fusion) (from UniProt P05648 1-446)”, the binding result in assay [1] and in assay [2] was “binds” in each case.
In the case of “DnaA^T26A, full-length (bacterial two-hybrid fusion) (from UniProt P05648 1-446)”, the binding result in assay [1] and in assay [2] was “binds” each time.
Consider “DnaA, full-length wild type, master initiator protein (bacterial two-hybrid fusion) (from UniProt P05648 1-446)”, for which the binding entry in assay [1] is reported as “binds”.
For “DnaA^W27A, full-length (bacterial two-hybrid fusion) (from UniProt P05648 1-446)”, the binding result in assay [1] and in assay [2] was “binds” each time.

B1: DnaD lacking the last eight amino acids (bacterial two-hybrid fusion) (domain or fragment, UniProt P39787 1-224)
chain: MKKQQFIDMQEQGTSTIPNLLLTHYKQLGLNETELILLLKIKMHLEKGSYFPTPNQLQEGMSISVEECTNRLRMFIQKGFLFIEECEDQNGIKFEKYSLQPLWGKLYEYIQLAQNQTQERKAEGEQKSLYTIFEEEFARPLSPLECETLAIWQDQDQHDAQLIKHALKEAVLSGKLSFRYIDRILFEWKKNGLKTVEQAKIHSQKFRRVQAKQNEPQKEYKRQV
On to B1, for which the binding entry in assay [3] was “no binding”.

B2: DnaD, full-length wild type (bacterial two-hybrid fusion), P39787 1-232 (protein)
chain: MKKQQFIDMQEQGTSTIPNLLLTHYKQLGLNETELILLLKIKMHLEKGSYFPTPNQLQEGMSISVEECTNRLRMFIQKGFLFIEECEDQNGIKFEKYSLQPLWGKLYEYIQLAQNQTQERKAEGEQKSLYTIFEEEFARPLSPLECETLAIWQDQDQHDAQLIKHALKEAVLSGKLSFRYIDRILFEWKKNGLKTVEQAKIHSQKFRRVQAKQNEPQKEYKRQVPFYNWLEQ
As to B2, the binding entry in assay [4] is “binds”.

B3: DnaD^F6A, full-length (bacterial two-hybrid fusion) (protein, UniProt P39787 1-232)
chain: B2 chain with F6A
On to B3, for which the binding result in assay [3] is reported as “binds”.

B4: DnaD^L22A, full-length (bacterial two-hybrid fusion) (protein, UniProt P39787 1-232)
chain: B2 chain with L22A
On to B4, for which the binding entry in assay [3] is on record as “no binding”.

B5: DnaA, full-length wild type, master initiator protein (bacterial two-hybrid fusion), P05648 1-446 (protein)
chain: MENILDLWNQALAQIEKKLSKPSFETWMKSTKAHSLQGDTLTITAPNEFARDWLESRYLHLIADTIYELTGEELSIKFVIPQNQDVEDFMPKPQVKKAVKEDTSDFPQNMLNPKYTFDTFVIGSGNRFAHAASLAVAEAPAKAYNPLFIYGGVGLGKTHLMHAIGHYVIDHNPSAKVVYLSSEKFTNEFINSIRDNKAVDFRNRYRNVDVLLIDDIQFLAGKEQTQEEFFHTFNTLHEESKQIVISSDRPPKEIPTLEDRLRSRFEWGLITDITPPDLETRIAILRKKAKAEGLDIPNEVMLYIANQIDSNIRELEGALIRVVAYSSLINKDINADLAAEALKDIIPSSKPKVITIKEIQRVVGQQFNIKLEDFKAKKRTKSVAFPRQIAMYLSREMTDSSLPKIGEEFGGRDHTTVIHAHEKISKLLADDEQLQQHVKEIKEQLK
Take B5: in assay [4], the binding result is given as “binds”.
